Test results: the supplement of paper PMC11369174, “Proteome-scale characterisation of motif-based interactome rewiring by disease mutations” (Molecular Systems Biology, 2024)
The list shows a part of the results. Read counts after selection give these values, which scatter widely.

These binders were tested against ALYREF_RRM__Q86V81_78_183 (assay: mean normalised NGS count of phage-displayed peptide after selection on bait (% of reads); baits are purified protein domains named by gene / domain / UniProt id / residues; peptides come from disordered regions of human proteins; higher = stronger enrichment / binding). Conditions: replicate selections in which the peptide was seen: 6.

Row | Binder | mean normalised NGS count
1 | EVDARHIIENAKQDVD [SMARCA4 700-715 wt] | 0.991
2 | DLYSRLGEQPPPGIVA [WNK4 1162-1177 mut Q96J92.K1169E] | 68.4
3 | DLYSRLGKQPPPGIVA [WNK4 1162-1177 wt] | 14

Target: T1, AP1G2_GAE__O75843_665_785
T1 chain: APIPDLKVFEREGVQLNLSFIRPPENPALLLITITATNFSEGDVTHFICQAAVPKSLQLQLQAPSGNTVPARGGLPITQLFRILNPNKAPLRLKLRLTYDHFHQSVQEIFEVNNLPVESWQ
Experiment: as above
Conditions: replicate selections in which the peptide was seen: 2

Row | Binder | mean normalised NGS count
4 | TESEAFGSLTEVSLPL [BARD1 267-282 wt] | 0.0182

Same assay, conditions: replicate selections in which the peptide was seen: 4

Row | Binder | mean normalised NGS count
5 | SIFGDNMNELQTFVTN [GRIN2A 954-969 mut Q12879.A968T] | 0.184
6 | DEQFGIWLDSSSPEQT [DYNC1H1 3954-3969 wt] | 0.00566

Same assay, conditions: replicate selections in which the peptide was seen: 5

Row | Binder | mean normalised NGS count
7 | LASWQQWVADGPGILN [EVC2 1044-1059 wt] | 0.00884

Same assay, conditions: replicate selections in which the peptide was seen: 6

Row | Binder | mean normalised NGS count
8 | ELQSERSAVAWVWFQN [NOBOX 339-354 wt] | 0.0516
9 | ELQTERSAVAWVWFQN [NOBOX 339-354 mut O60393.S342T] | 1.92
10 | YDEVTAFLGEWGPFQH [SLC22A5 4-19 mut O76082.R19H] | 64.7
11 | GAANDWTQFTVAGRMV [SVIL 1204-1219 mut O95425.S1209W] | 0.0669
12 | GTSPSGLNMGELIAWM [CAPN3 275-290 mut P20807.R289W] | 3.68
13 | LLSDDSNFGQFELTTF [MSH2 279-294 wt] | 4.34
14 | LLSDDSNFGQFQLTTF [MSH2 279-294 mut P43246.E290Q] | 0.25
15 | EAAQQQQALASWQQWV [EVC2 1036-1051 wt] | 0.212
16 | PLPSKSVDWTHFGGSP [TSC1 668-683 wt] | 0.061
17 | AIESPSKDDDTVWLTY [REEP6 73-88 wt] | 0.0553
18 | DATSSVTFLPFMSWLP [SLC52A3 119-134 mut Q9NQ40.R132W] | 10.7

Target: T2, CLTC_Clathrin-propeller__Q00610_1_364
T2 chain: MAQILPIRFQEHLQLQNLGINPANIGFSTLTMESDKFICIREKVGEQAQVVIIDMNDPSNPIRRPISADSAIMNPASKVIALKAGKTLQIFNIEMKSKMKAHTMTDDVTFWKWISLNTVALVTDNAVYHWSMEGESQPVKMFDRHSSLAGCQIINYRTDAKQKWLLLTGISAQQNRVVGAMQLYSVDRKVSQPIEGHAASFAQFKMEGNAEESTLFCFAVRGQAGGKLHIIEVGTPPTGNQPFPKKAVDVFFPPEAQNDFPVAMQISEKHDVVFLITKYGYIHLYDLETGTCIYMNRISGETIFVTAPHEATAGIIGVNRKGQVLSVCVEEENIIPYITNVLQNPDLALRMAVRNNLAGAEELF
Experiment: as above
Conditions: replicate selections in which the peptide was seen: 6

Row | Binder | mean normalised NGS count
19 | GTSPSGLNMGELIAWM [CAPN3 275-290 mut P20807.R289W] | 5.79

Target: T3, AP2B1_adaptin__P63010_700_937
T3 chain: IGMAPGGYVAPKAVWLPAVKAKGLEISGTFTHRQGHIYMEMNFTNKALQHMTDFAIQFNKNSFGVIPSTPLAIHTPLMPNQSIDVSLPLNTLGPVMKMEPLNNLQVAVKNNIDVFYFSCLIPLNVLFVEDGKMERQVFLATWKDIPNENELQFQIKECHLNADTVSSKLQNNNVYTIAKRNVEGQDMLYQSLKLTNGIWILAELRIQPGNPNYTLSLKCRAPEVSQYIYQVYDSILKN
Experiment: as above
Conditions: replicate selections in which the peptide was seen: 2

Row | Binder | mean normalised NGS count
20 | SDDSNFAQFELTTFDF [MSH2 281-296 mut P43246.G287A] | 0.0393
21 | SIVTNLDDSNWAAAFS [NUP107 100-115 mut P57740.M101I] | 0.111
22 | EKPNWPDTSFIWFLNP [OTOF 1935-1950 mut Q9HC10.R1939W] | 0.0578

Same assay, conditions: replicate selections in which the peptide was seen: 3

Row | Binder | mean normalised NGS count
23 | LKEAETWAEFAERSVT [TPM1 232-247 mut P09493.R238W] | 0.169
24 | NLDWLVSKLDWLEASS [RYR1 542-557 mut P21817.R552W] | 0.203
25 | DWAFAQRELLEKQGID [KIF1A 618-633 wt] | 0.0199
26 | SLPDFALKFLPGYVGG [DHCR7 113-128 mut Q9UBM7.H119L] | 0.0436

Same assay, conditions: replicate selections in which the peptide was seen: 4

Row | Binder | mean normalised NGS count
27 | NGDDSLFFSNFSLLGA [CFTR 423-438 mut P13569.T438A] | 0.0235
28 | EFADLTQVETFGFWGE [PMS2 94-109 mut P54278.R107W] | 0.0741
29 | DLTQVETFGFRGEALS [PMS2 97-112 wt] | 0.0321
30 | AETPAEPVDWAFAQRE [KIF1A 610-625 wt] | 0.0239

Same assay, conditions: replicate selections in which the peptide was seen: 5

Row | Binder | mean normalised NGS count
31 | DWAFAQHELLEKQGID [KIF1B 618-633 mut Q12756.R624H] | 0.299
32 | QGLQGAQMGQPWFFFP [GAA 115-130 mut P10253.C127F] | 0.0668
33 | LLSDDSNFAQFELTTF [MSH2 279-294 mut P43246.G287A] | 0.183
34 | DWAFAQHELLEKQGID [KIF1A 618-633 mut Q12756.R624H] | 0.299

Same assay, conditions: replicate selections in which the peptide was seen: 6

Row | Binder | mean normalised NGS count
35 | DEVTAFLGEWWPFQRL [SLC22A5 5-20 mut O76082.G15W] | 6.7
36 | YWMPKWINATDPSAAT [ASNS 536-551 mut P08243.R550C] | 0.111
37 | PYPKWNSVFDQLTQVV [MAP2K4 306-321 wt] | 0.502
38 | DLTQVETFGFWGEALS [PMS2 97-112 mut P54278.R107W] | 49.8
39 | GVSERWQRLTFPAVSV [GNPTAB 780-795 mut Q3T906.L785W] | 0.179
40 | ASENFLIAAVEAWGFQ [TBC1D24 539-554 wt] | 2.28
41 | WTFQPFTNHSVDGPQR [SSUH2 127-142 wt] | 0.135
42 | NAQKHSPFSLSAWFWL [POMT1 175-190 mut Q9Y6A1.W186C] | 5.15

Target: T4, PEX14_Pex14__O75381_16_84
T4 chain: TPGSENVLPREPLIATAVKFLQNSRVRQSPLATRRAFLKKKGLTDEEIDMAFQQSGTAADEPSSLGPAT
Experiment: as above
Conditions: replicate selections in which the peptide was seen: 6

Row | Binder | mean normalised NGS count
43 | DEVTAFLGEWWPFQRL [SLC22A5 5-20 mut O76082.G15W] | 2.79

Same assay, conditions: replicate selections in which the peptide was seen: 5

Row | Binder | mean normalised NGS count
44 | PYPKWNSVFDQLTQVV [MAP2K4 306-321 wt] | 3.18

Target: T5, CSK21_Pkinase__P68400_1_335
T5 chain: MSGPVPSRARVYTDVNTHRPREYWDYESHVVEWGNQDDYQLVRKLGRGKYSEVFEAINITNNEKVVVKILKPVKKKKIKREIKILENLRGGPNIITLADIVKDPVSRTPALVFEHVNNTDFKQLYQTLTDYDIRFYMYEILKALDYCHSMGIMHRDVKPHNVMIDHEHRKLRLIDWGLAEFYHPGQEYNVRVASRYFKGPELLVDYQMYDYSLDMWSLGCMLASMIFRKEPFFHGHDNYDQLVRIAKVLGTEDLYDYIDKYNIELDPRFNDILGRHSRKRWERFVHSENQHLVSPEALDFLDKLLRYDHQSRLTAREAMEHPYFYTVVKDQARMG
Experiment: as above
Conditions: replicate selections in which the peptide was seen: 2

Row | Binder | mean normalised NGS count
45 | NAQKHSPFSLSAWFWL [POMT1 175-190 mut Q9Y6A1.W186C] | 3.26

Target: T6, AP2_Mu__Q96CW1_160_435
T6 chain: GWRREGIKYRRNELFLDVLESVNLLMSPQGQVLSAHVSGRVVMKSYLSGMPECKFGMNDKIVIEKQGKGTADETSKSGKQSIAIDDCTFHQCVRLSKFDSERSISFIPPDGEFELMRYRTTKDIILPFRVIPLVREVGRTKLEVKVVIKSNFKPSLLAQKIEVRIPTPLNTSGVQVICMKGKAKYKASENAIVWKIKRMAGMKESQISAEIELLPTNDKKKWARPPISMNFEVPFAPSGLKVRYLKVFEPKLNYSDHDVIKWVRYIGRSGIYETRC
Experiment: as above
Conditions: replicate selections in which the peptide was seen: 2

Row | Binder | mean normalised NGS count
46 | AKGYQLLEEEKIVFHY [GJA8 263-278 mut P48165.S276F] | 0.0495
47 | EEWSQWLGGSSWPDYV [HSPB1 40-55 mut P04792.G53D] | 6.79
48 | EEWSQWLGGSSWPGYV [HSPB1 40-55 wt] | 0.734

Target: T7, AURKA_Pkinase-merged__O14965_125_391
T7 chain: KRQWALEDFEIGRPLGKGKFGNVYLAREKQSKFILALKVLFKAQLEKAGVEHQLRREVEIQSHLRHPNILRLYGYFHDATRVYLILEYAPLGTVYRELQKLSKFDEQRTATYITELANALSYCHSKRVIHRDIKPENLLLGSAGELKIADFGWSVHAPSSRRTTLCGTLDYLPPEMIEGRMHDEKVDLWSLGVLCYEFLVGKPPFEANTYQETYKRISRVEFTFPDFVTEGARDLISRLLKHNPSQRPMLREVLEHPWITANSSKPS
Experiment: as above
Conditions: replicate selections in which the peptide was seen: 6

Row | Binder | mean normalised NGS count
49 | EEWSQWLGGSSWPDYV [HSPB1 40-55 mut P04792.G53D] | 48
50 | EEWSQWLGGSSWPGYV [HSPB1 40-55 wt] | 2.12

Target: T5, CSK21_Pkinase__P68400_1_335
Experiment: as above
Conditions: replicate selections in which the peptide was seen: 3

Row | Binder | mean normalised NGS count
51 | EEWSQWLGGSSWPDYV [HSPB1 40-55 mut P04792.G53D] | 0.223

These binders were tested against MK08_Pkinase__P45983_1_363 in the same assay as above. Conditions: replicate selections in which the peptide was seen: 2.
Chain of MK08_Pkinase__P45983_1_363 (chain, as listed by the source): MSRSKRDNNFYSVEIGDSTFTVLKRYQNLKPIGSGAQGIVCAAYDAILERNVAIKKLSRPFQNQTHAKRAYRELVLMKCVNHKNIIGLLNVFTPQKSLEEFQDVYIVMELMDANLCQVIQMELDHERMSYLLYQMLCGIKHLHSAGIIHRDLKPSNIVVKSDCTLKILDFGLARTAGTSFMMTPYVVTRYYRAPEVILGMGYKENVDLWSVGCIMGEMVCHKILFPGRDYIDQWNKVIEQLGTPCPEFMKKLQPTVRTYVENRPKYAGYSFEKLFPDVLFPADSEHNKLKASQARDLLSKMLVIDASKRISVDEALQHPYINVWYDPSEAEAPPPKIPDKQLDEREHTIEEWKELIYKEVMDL

Row | Binder | mean normalised NGS count
52 | EEWSQWLGGSSWPDYV [HSPB1 40-55 mut P04792.G53D] | 0.341
53 | EEWSQWLGGSSWPGYV [HSPB1 40-55 wt] | 0.0528

Target: T6, AP2_Mu__Q96CW1_160_435
Experiment: as above
Conditions: replicate selections in which the peptide was seen: 3

Row | Binder | mean normalised NGS count
54 | AKGYQLLEEEKIVSHY [GJA8 263-278 wt] | 0.0832
55 | VSHYFPLTEVGMVETS [GJA8 275-290 wt] | 0.0171
56 | QARYNQLQEQRDTMVT [TSC1 758-773 wt] | 0.0799
57 | SADNQRYAFMPLIDDS [TMEM87B 454-469 mut Q96K49.N456D] | 0.0372
58 | SANNQRYAFMPLIDDS [TMEM87B 454-469 wt] | 0.128
59 | YYPLTGDTRLELELRP [APOB 992-1007 wt] | 0.0217

Same assay, conditions: replicate selections in which the peptide was seen: 4

Row | Binder | mean normalised NGS count
60 | WSYLEEEEGVSISVYR [TTN 10422-10437 mut Q8WZ42.S10425L] | 0.12
61 | KARYNQLQEQRDTMVT [TSC1 758-773 mut Q92574.Q758K] | 0.242
62 | QARYSQLQEQRDTMVT [TSC1 758-773 mut Q92574.N762S] | 0.184

Target: T8, DOK1_PTB__Q99704_151_256
T8 chain: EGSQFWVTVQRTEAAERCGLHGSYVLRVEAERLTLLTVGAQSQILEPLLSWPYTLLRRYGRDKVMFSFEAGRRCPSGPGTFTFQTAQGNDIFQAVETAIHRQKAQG
Experiment: as above
Conditions: replicate selections in which the peptide was seen: 4

Row | Binder | mean normalised NGS count
63 | WSYLEEEEGVSISVYR [TTN 10422-10437 mut Q8WZ42.S10425L] | 0.0939

Target: T6, AP2_Mu__Q96CW1_160_435
Experiment: as above
Conditions: replicate selections in which the peptide was seen: 5

Row | Binder | mean normalised NGS count
64 | YARFGEEHSANPFHWD [ABCA4 1858-1873 wt] | 0.0247
